The assay concerns the target T1, human stem cell factor (SCF) (human, UniProt P21583 partial chain, limits assumed).
T1 construct: also called hSCF; human SCF
In words: inferred from SCF-induced proliferation and survival of transfected Ba/F3 cells (Example 1). On the procedure: Stably transfected Ba/F3 cells were starved overnight and were stimulated with various concentrations of mouse or human SCF (stem cell factor) for 4 days. Cell survival was assessed by DAPI exclusion flow cytometry. Cell proliferation was assessed by EdU flow cytometry.

B1: chimeric c-KIT protein (mSP-hEC-mTM-mIC) (receptor)
chain: [sequence of about 500 residues omitted]LLIGFVVAAGAMGIIVMVLTYKYLQKPMYEVQWKVVEEINGNNYVYIDPTQLPYDHKWEFPRNRLSFGKTLGAGAFGKVVEATAYGLIKSDAAMTVAVKMLKPSAHLTEREALMSELKVLSYLGNHMNIVNLLGACTVGGPTLVITEYCCYGDLLNFLRRKRDSFIFSKQEEQAEAALYKNLLHSTEPSCDSSNEYMDMKPGVSYVVPTKTDKRRSARIDSYIERDVTPAIMEDDELALDLDDLLSFSYQVAKGMAFLASKNCIHRDLAARNILLTHGRITKICDFGLARDIRNDSNYVVKGNARLPVKWMAPESIFSCVYTFESDVWSYGIFLWELFSLGSSPYPGMPVDSKFYKMIKEGFRMVSPEHAPAEMYDVMKTCWDADPLKRPTFKQVVQLIEKQISDSTKHIYSNLANCNPNPENPVVVDHSVRVNSVGSSASSTQPLLVHEDA
notes: The signal peptide is left out here; also called chimeric human/mouse c-KIT; hmCD117
As for B1, the binding result was “binds”.
